Laboratory results as given in PubChem BioAssay AID1671193 (National Center for Advancing Translational Sciences (NCATS), 2021).
Where “and” joins values, the source holds several entries; their conditions need not be identical. Equal values may be shown once. The campaign covered roughly 150,000 compounds. About 180 (0.12%) were called active. Inconclusive results, whose numbers are uncertain, are shown with a selection of clear calls. Calls come from the whole dose curve; as a rule, active = well fitted cell-killing curve with a large enough effect; inconclusive = small, poorly fitted or top-dose-only effect, or effect the other way; inactive = flat fitted curve, though single readings scatter. Where the call is inconclusive, the potency comes from a doubtful curve fit.

assay: GF-AFC viability counterscreen for inhibitors of alpha-synuclein gene (SNCA) expression; settings: HEK-293-SNCA-luc viability, GF-AFC fluorescence, 24 h; activity change, negative = cytotoxicity: at 57.1 µM (top of the series) unless noted; note: nearly all actives have a fitted effect of over 30% in size;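 for activity change, negative = cytotoxicity: 0% = DMSO-treated cells and -100% = medium-only wells without cells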
Procedure, shortened: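 Cytotoxicity counterscreen: after 24 h compound treatment of genome-edited SNCA-luciferase HEK-293 cells, live-cell protease substrate GF-AFC read by fluorescence after 30 min; activity scaled between DMSO (0%) and medium-only (-100%), curves Hill-fitted.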
Potency is the fitted concentration of half-maximal effect; tags give direction and shape of the fitted curve.

| Compound | Potency | activity change, negative = cytotoxicity |
| --- | --- | --- |
| CCOC(=O)[C@H]1O[C@@H]1C(=O)N[C@@H](CC(C)C)C(=O)NCCC(C)C | inconclusive: 3.77 µM [cytotoxic, full curve] | – |
| C[C@H]1CCCN1C(=O)c1nnc(CNc2ccc(OC(F)(F)F)cc2)n1-c1ccccc1 | inactive | – |
| COc1ccccc1-c1cc(C(=O)NCCc2ccc(Cl)cc2)nc2c1cnn2C | inactive | – |
| COCCNC(=O)c1ccc2c(c1)N(C)C(CC(=O)NC(C)(C)CO)CO2 (stereo not drawn) | inactive | – |
| CN1c2cc(C(=O)N3CCN(c4ccccc4)CC3)ccc2C(=O)N2CCCCC21 (stereo not drawn) | – | inactive: 9.18% [at 12.5 µM] |
| COc1ccc(-c2nc3cnccn3c2NCCC(=O)Nc2ccc(C)cc2C)cc1 | inconclusive: 31.6 µM [rising, single point] | – |
| O=C(O)c1ccc(CN2C[C@H](O)C[C@H]2c2nc(-c3ccc4c(c3)OCO4)no2)cc1 | inactive | – |
| O=C(NCc1ccccc1)c1ccccc1OC1CN(Cc2cccc(F)c2)C1 | inconclusive: 35.5 µM [cytotoxic, single point] | – |
| O=C(N[C@H]1CCN2C(=O)N(c3cccc4nsnc34)C(=O)[C@@H]2C1)c1ccc(F)c(Cl)c1 | inactive | – |
| COc1cccc(C(=O)N2CCC(c3nn(-c4ccc(Cl)cc4)c(=O)[nH]3)CC2)c1 | inactive | – |
| COc1cccc(/C=C/c2nc(C#N)c(N(C)Cc3ccccc3)o2)c1 | inconclusive: 35.5 µM [rising, single point] | – |
| COCCn1ccc2c(C3=CCOCC3)nc(-c3cccc4[nH]ccc34)cc21 | inconclusive: 14.1 µM [cytotoxic, partial curve, poor fit] | – |
| c1ccc(CCNc2ncncc2-c2nc(-c3ccccc3)no2)cc1 | inactive | – |
| CC(C)Cc1cc(C[C@@H]2C[C@H](NC3CCOCC3)C2(C)C)no1 | inactive | – |
| O=C(c1nnn2cc(-c3ccccc3)[nH]c(=O)c12)N1CCN(C2CCCCC2)CC1 | inactive | – |
| CC1(COc2ccccc2)COc2ccc(C(=O)NCc3ccco3)cc2N1 (stereo not drawn) | inactive | – |
| Cc1c(C(=O)Nc2ccc(F)cc2F)nnn1-c1ccccc1Br | inactive | – |
| O=C(Cc1cccc(Cl)c1)N[C@@H]1CN(c2ncccn2)C[C@H]1CO | inactive | – |
| COc1ccc(-c2ccc3c(n2)CN(Cc2ccccc2F)C(=O)CO3)cc1OC | inconclusive: 28.2 µM [cytotoxic, partial curve] | – |
| Cc1nn2c(c1-c1ccccc1Oc1ccccc1)N(CC1CC1)CCC2 | inconclusive: 10 µM [cytotoxic, partial curve] | – |
| Cc1nn(-c2ccccn2)c(C)c1[C@@H]1C=C[C@@H](NC(=O)CSCC(=O)O)C1 | inactive | – |
| Cn1ncc2c(C(=O)NCc3ccc(Cl)cc3)cc(-c3ccc(F)cc3)nc21 | inconclusive: 22.4 µM [cytotoxic, partial curve, poor fit] | – |
| CC(C)CNC(=O)N1CCC(CCOc2ccc(F)cc2)C1 (stereo not drawn) | inactive | – |

| Compound | Potency | activity change, negative = cytotoxicity |
| --- | --- | --- |
| CNC(=O)CCn1ncc2cc(OC3CCc4cccc(-c5cccc(CO)c5)c43)ccc21 (stereo not drawn) | inconclusive: 28.2 µM [cytotoxic, single point] | – |
| Cc1ncccc1C(=O)N1CC(Oc2ccc(-c3nc(-c4ccccc4)no3)cc2)C1 | inconclusive: 10 µM [cytotoxic, partial curve, poor fit] | – |
| Cc1cc(C)c(-c2n[nH]c3c2C(c2ccccc2F)N(CCO)C3=O)c(O)c1 (stereo not drawn) | inconclusive: 15.8 µM [cytotoxic, partial curve] | – |
| C=CC(=O)Nc1cccc(Sc2nc(Nc3ccc(N4CCN(C)CC4)cc3)ncc2Cl)c1 | inconclusive: 48.2 µM [cytotoxic, single point] and inconclusive: 18.9 µM [cytotoxic, partial curve] | – |
| N#CCCn1c(=O)c(-c2cccs2)nc2cnc(Oc3ccccc3)nc21 | inconclusive: 35.5 µM [rising, single point] | – |
| CS(=O)(=O)Nc1ccc(C2(C(=O)N3CCN(c4ccccn4)CC3)CCCCC2)cc1 | inactive | – |
| CCCn1c(=N)c(C(=O)NC(C)c2ccccc2)cc2c(=O)n3ccccc3nc21 (stereo not drawn) | inconclusive: 1.78 µM [rising, full curve, poor fit] | – |
| COc1ccc(C(=O)Nc2ccc([C@H]3OCC(=O)N(C(C)C)[C@@H]3CO)cc2)cc1 | inactive | – |
| O=C(CN1C(=O)COc2ccc(C(=O)COc3ccccc3Cl)cc21)NCc1ccco1 | inconclusive: 10 µM [cytotoxic, partial curve, poor fit] | – |
| Cc1noc(C)c1-c1cnc(Nc2cccc(C(F)(F)F)c2)c2c1CCO2 | inactive | – |
| Cc1ccc(C(=O)CC2(O)C(=O)N(CCc3ccccc3)c3ccc(Br)cc32)cc1 (stereo not drawn) | inconclusive: 17.8 µM [cytotoxic, single point] | – |
| CC(C(=O)NCc1ccccc1)n1ccc2cc(S(=O)(=O)N3CCCC3)ccc21 (stereo not drawn) | inactive | – |
| COC(=O)N1CCC2(C1)OC(=O)Nc1ccccc12 (stereo not drawn) | inconclusive: 11.2 µM [cytotoxic, partial curve, poor fit] | – |
| O=C(CN1C(=O)CCSc2ccc(S(=O)(=O)N3CCCC3)cc21)Nc1ccccc1Cl | inactive | – |
| O=C(NCc1ccccn1)c1ccc2nnc(Cc3ccc(Cl)cc3)n2c1 | inactive | – |
| C=CCn1cc2c3c(cccc31)[C@H](CC(C)C)N[C@H](C(=O)NCCN(C)C)C2 | inactive | – |
| COc1cccc(C(=O)N2CCC3(CC2)CCN(CCc2ccccc2)c2ccccc2O3)c1 | inconclusive: 25.1 µM [rising, partial curve, poor fit] | – |
| COc1ccc(CN2C(=O)[C@H](OC)[C@@H]2C2=CCN(C(=O)c3ccc(OC)cc3)CC2)cc1 | inconclusive: 3.55 µM [cytotoxic, single point] | – |
| Cc1nc2ncccn2c1C(=O)N1CCC(c2[nH]ncc2-c2ccccc2)CC1 | inactive | – |
| Cn1ncc2c(C(=O)NCc3cccnc3)cc(-c3cccc(C(F)(F)F)c3)nc21 | inconclusive: 39.8 µM [cytotoxic, single point] | – |
| O=C(c1ccc(C(F)(F)F)cc1)N1CCN(C2CCN(Cc3ccccn3)C2=O)CC1 (stereo not drawn) | – | inconclusive: -51.3% |
| COc1ccccc1C(=O)N1CCN(c2cc(-c3cccs3)[nH]n2)CC1 | inactive | – |
| Fc1ccccc1CN1CCOC[C@H]1c1ncc(-c2ccc(Cl)s2)[nH]1 | inactive | – |

| Compound | Potency | activity change, negative = cytotoxicity |
| --- | --- | --- |
| COc1cccc(Cn2c(=O)c(-c3cccs3)nc3cnc(N4CCOCC4)nc32)c1 | inconclusive: 28.2 µM [rising, partial curve, poor fit] | – |
| CN1CCN(c2ncc3nc(-c4cc(F)cc(F)c4)c(=O)n(C)c3n2)CC1 | inconclusive: 28.2 µM [rising, partial curve, poor fit] | – |
| CO[C@H]1[C@H](NC(=O)c2cc3ccccc3n2C)c2ccccc2C12CCNCC2 | inconclusive: 28.2 µM [cytotoxic, partial curve, poor fit] | – |
| CCCCNc1ncc(C(=O)NCc2ccc(-n3ccnc3)cc2)c(NC2CCC(O)CC2)n1 (stereo not drawn) | inconclusive: 37.7 µM [cytotoxic, single point] | – |
| COc1ccc(-c2nc3scc(CCNS(=O)(=O)c4cccs4)n3n2)cc1 | inconclusive: 10 µM [cytotoxic, partial curve] | – |
| c1ccc2c(c1)CCc1ccccc1N2 | inactive | – |
| CC1=C[C@@H](CNC(=O)c2ccnc(Cl)c2)[C@H](C(C)C)C[C@H]1Cc1nc2ccc(C)cc2[nH]1 | inconclusive: 28.2 µM [cytotoxic, single point] | – |
| COc1ccc(NC(=O)N2CCC3(CC2)CCN(C(=O)c2cc(C(F)(F)F)cc(C(F)(F)F)c2)CC3)cc1 | inconclusive: 8.91 µM [cytotoxic, full curve, poor fit] | – |
| O=c1c2nc(-c3cccnc3)ccc2ncn1-c1ccc(F)cc1F | inactive | – |
| COc1cccc(-c2c(C(=O)Nc3cccc(Cl)c3)nc3sccn23)c1 | inconclusive: 35.5 µM [cytotoxic, single point] | – |
| COc1ccc(/C=C/c2nc(C#N)c(N3CCC(C(N)=O)CC3)o2)cc1OC | inconclusive: 22.4 µM [rising, single point] | – |
| Cc1ccc(C(C(=O)N2CCC(Cc3noc(C)n3)CC2)N(C)C)cc1 (stereo not drawn) | inactive | – |
| CC(C)c1cccc(NC(=O)CN2C(=O)NC(c3ccccc3Cl)C3=C2COC3=O)c1 (stereo not drawn) | inactive | – |
| CC(=O)NC1(C)CCN(Cc2ccccc2-c2ccccc2Oc2ccccc2)C1 (stereo not drawn) | inconclusive: 35.5 µM [cytotoxic, single point] | – |
| O=C(c1ccccc1OCC1CCCN(CC2=Cc3ccccc3OC2)C1)N1CCCCC1 (stereo not drawn) | inconclusive: 28.2 µM [cytotoxic, single point] | – |
| O=C(Cc1cccc(F)c1)N1C[C@@H](CO)[C@H](c2nc(C3CC3)no2)C1 | inconclusive: 20 µM [cytotoxic, partial curve, poor fit] | – |
| CCOC(=O)C1CCN(c2cc3c(cc2NC(=O)c2ccccc2Cl)n(C)c(=O)n3C)CC1 | inconclusive: 25.1 µM [rising, single point] | – |
| O=Cc1ccccc1-c1cccc(O)c1 | inactive | – |
| COc1ccc(-c2nc3sc(CCNC(=O)C(C)(C)C)c(C)n3n2)cc1 | inconclusive: 14.1 µM [cytotoxic, partial curve] | – |
| CNC(=O)C1CCCN(c2nnc(C)c3c(C)n(-c4ccccc4)nc23)C1 (stereo not drawn) | inconclusive: 17.8 µM [cytotoxic, single point] | – |
| CCOCCCNC(=O)c1ccc(-c2nc(CS(=O)(=O)c3ccccc3)c(C)o2)cc1 | inconclusive: 7.94 µM [rising, single point] | – |
| CN(C)C(=O)c1ccnc(-c2nnc3ccc(NCCN4CCOCC4)nn23)c1 | inactive | – |
